± gives the standard deviation of the averaged measurements. The full ranking holds about 4,000 sequences; the median of “arbitrary fluorescence units” is about 830, and the highest 2% start at about 6,500. This part holds few or none of the hits.
Target: RUNX1 (UniProt Q01196)
Assay: RUNX1 binding intensity (PBM fluorescence), RUNX1 alone (arbitrary fluorescence units); higher = stronger binding
Conditions: RUNX1 concentration 2 nM; ETS1 concentration 0 nM
Method: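 gcPBM on 36-bp genomic-derived probes (partner site mutated) containing one RUNX1 site and no ETS1 site. Recombinant human RUNX1 (2 nM) was incubated alone or with ETS1 (25 nM) and detected by anti-RUNX1 antibody fluorescence. Values are medians over 4 replicate spots (not normalised). The probes sit in constant array flanks that are not printed.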
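Also: Full-length recombinant human RUNX1 bound to double-stranded DNA microarray spots, detected with an Alexa488-labelled secondary antibody after the anti-RUNX1 primary, read as scanned spot fluorescence.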

UniProt Q01196, sequence (Q01196 whole entry): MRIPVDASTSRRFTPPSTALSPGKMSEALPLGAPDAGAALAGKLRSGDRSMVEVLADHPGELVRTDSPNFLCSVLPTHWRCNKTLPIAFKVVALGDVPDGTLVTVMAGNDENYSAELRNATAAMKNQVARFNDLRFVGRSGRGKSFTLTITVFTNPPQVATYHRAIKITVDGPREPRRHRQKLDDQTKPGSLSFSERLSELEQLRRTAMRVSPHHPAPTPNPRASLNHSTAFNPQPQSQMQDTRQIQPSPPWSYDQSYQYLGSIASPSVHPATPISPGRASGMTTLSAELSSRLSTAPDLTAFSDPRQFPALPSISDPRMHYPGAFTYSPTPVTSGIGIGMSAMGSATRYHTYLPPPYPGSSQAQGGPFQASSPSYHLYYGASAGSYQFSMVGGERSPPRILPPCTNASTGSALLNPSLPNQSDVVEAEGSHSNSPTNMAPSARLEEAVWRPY

| Sequence | RUNX1 binding intensity |
| --- | --- |
| AACCAGAATAACCACAGATCAAGCCGTAAGCACATG | 1710 |
| CTTATCCCACAAGGGCACCTGGCTGGAATAATGGAG | 783 |
| GTCACGCGCCGGCTCCAACCCCCAACCACTTTAGCC | 1050 |
| GCGCTCAAGCTGCCCACAGGTCTTCAGACCTAACTT | 738 |
| GAAACCACAACCTACCCCAGCCTTACTTTCGGGCGC | 3300 |
| AGCAACCCCAGCCCCACAGCGCTTCATGAGAAGTAA | 825 |
| GAGGAAAAAGGACACAGAAACTCCGCAACTTGCGCC | 801 |
| CTGCAGCCGCGGTCTCCCGGCCGAAGCTCTTCACTT | 811 |
| CTGCTGCGGGGATCCTTGGGGCCCTTACGGTCGGTG | 727 |
| CAGCACGCAGCAAGCACATGTGGTGGGGCTCTTCCA | 750 |
| CCGCTAGCCCGCAGCGCTCGGCTCCCTGGTAATTCT | 1020 |
| CCGGGACCGCGTACTCGTCCTTCTTTGCCGTTAGTC | 902 |
| ACCGTGGTGTTCCCCCCAATGCCTTGTGGGAGTTGT | 905 |
| CTTCTGGCCGCAAGGCGCCAGCGCTCCCGGGCCCCA | 919 |
| TGGCTGTCACTTGCTGTCCCACTGTGGTTCCTGGGA | 727 |
| GGTGGGAGTGACCACAACACTTCGTGCCCTCTTCCA | 2200 |
| GGTTGGTGGTTCGATCCCACCCAGGGACGGAGGTCG | 800 |
| CTTTTGCGGCTACATGTCCCCCTTTACGGGAATCTG | 2520 |
| GAGGTGGTCAGAGCCTCCCTTGACATGAAACAAGAA | 724 |
| GCCCAGGGCGGCTGGAAGTTTGCGGGGCGGGGCGGA | 689 |
| GCACGAAACGCTTTCTTAACACTATGTGGGTGAGGT | 746 |
| TGGCTTTCTGTCTGTCCTTCATCAGCCCACAGAGGC | 830 |

| Sequence | RUNX1 binding intensity |
| --- | --- |
| GGGCGCGACTCCCGGGGCGGCGGTTGCATCAGATTC | 744 |
| GTGGCTGTGGTTGAACTGACTCTCGGGTTTGCGCTC | 969 |
| ACATGAGGAATCTGAAGCATAGAGAGGGTGGTTAAC | 758 ± 23 |
| CACTCCCGGGTCGTCAGCTCAGTTCTGCGGTTTCTG | 4760 |
| TCTGCGGCTTTCTCTCCCCAGCCACAGCCGCCATTC | 2390 |
| TTCTGCTACATGCTGCCCACTCCCTGTGGCTTCCAC | 1070 |
| TGGCGCCTGAAAACTGGCGATGCGGGTGGGCGCGAA | 620 |
| GTTCAGCAGCCACAACAAGAGAGGCTGTGTAGTGTT | 790 |
| AGACCCTGTGGTCACATGGCAGCAAGTCTGCAGGTT | 945 |
| AGCTTGCTTTCTGTCCCCAAAACCCACAGCACACGG | 865 |
| CACTCCCCCCAGCCTCTCTTTTTAATACCACAATAG | 1830 |
| AGCCGCCACTGCCTGTCTCTGCGGGTGCATGCTCTT | 837 |
| TGCCCAGTAGTTCCTCTTGTGGGGGAGCACAACTTG | 792 |
| CGGCCGAAGGCGGACTCTCGCGGGAGCCACAAAGAG | 810 |
| GAAACAATTGCCTGTACCTCTGTGGTAAAAATGATA | 941 |
| TCGCACCTGAACCCCTTGGCGGATTATGTGGGTTCC | 777 |
| GGAGTGAACAACCGCAACAGATAGGGAATTGACACA | 2620 |
| TCAGTGTCCTCATCAGGGGCAAGGGCACCACCGCGG | 714 |
| GATGTGGTCTCGGCTGGAGCCTGCACGAAACCTCGT | 791 |
| CAGGACCGCTGTACTCCGGGTGAAGCTGAAGCGCAG | 683 |
| GACCTTCAGCGGTGGGTCCCGAAACTGGGTTTTAGG | 772 |
| AGCGGCAGTAGAGCAAGCCTTCGCGGTCCATGGCCA | 745 |

| Sequence | RUNX1 binding intensity |
| --- | --- |
| AATCACTGACACCCACACAGCCGTTTCGTGCACTTA | 996 |
| AGGCTTCTCCCGGGCGTCTCTTTGTGGTGGCGTTGA | 834 |
| CCCCCGCCGCAGGCGCCCATCAGTGCCACTTTCGGA | 1070 |
| CAGTGGCAGTAGCGGTTTGGCCCTTCATGCCCTGGG | 878 |
| TTAAAAACCACCTGAGACTCCAGTTCCCGGCGTGCT | 729 |
| GCACGCGCCGCAGGCCGACCCCTGGAACCCTCCGGG | 798 |
| AAACGTCCTCTTTTTAGCGCGCAGGCGCCGCAGGGC | 782 |
| TGTCTTCAGGCAGTGTAGCAGGTGTTGAGGTCAAGC | 702 ± 18 |
| GCGATTGTGGTTCCCGCCGTAGTTCACGTTCCCCAT | 1100 |
| CAGCTCCGAATTCCGGGTGCGGTACGGCGAAGCAGA | 805 |
| ATAGTCTCTTTCTGTGTTGCAAACCACAGGTCCACC | 1220 |
| TGTGCATGTGGTTTTCGGGTACGTGATTGCCTCTTT | 2800 |
| TGCAATCAGGGAGCCTGCCCCTCTAGAACCACAAAA | 758 |
| TCTCGGTCTCCTAAAAAACTAAACCGCCTGGGGCTG | 996 |
| CCCCTCCCCTCAGCCGCAGGTGTTTCAGTTCGGGTG | 823 |
| AAATCACATGTCCCAGAGTGCACCGCGACGGCAGGG | 727 |
| CTCTGAAGGAATTGATGTTAGACGGCTGTGGGTGGT | 696 |
| CTTATCAACCACCAAGAGACATGTCCCCTTTGTACT | 1060 |
| CCGCCGCGACACTTTCGGCGGCCACCACAGGGTATT | 833 |
| GCTCCCTTGCTGAGCCTCTGCTGGCCTCACCACAGG | 906 |

Reference: the supplement of paper PMC10681739
